Out of some 420,000 compounds screened, about 50,000 (12%) were called active. Inconclusive means that the source gave no clear call. Such entries were picked first, then a sample of the others. Calls follow the shape of the dose curve; as a rule, active = well fitted inhibition curve with a large enough effect; inconclusive = small, poorly fitted or top-dose-only effect; inactive = flat fitted curve, though single readings scatter. Potencies of inconclusive entries are left out as doubtful fits.
experiment: qHTS for Inhibitors of human tyrosyl-DNA phosphodiesterase 1 (TDP1): qHTS in cells in presence of CPT; conditions: chicken DT40 Tdp1-/-;hTDP1 cells + 20 nM CPT, ATP luminescence, 48 h; activity change, negative = growth inhibition: at 46.2 µM (top of the series) unless noted; also: nearly all actives have a fitted effect of over 55% in size
Method in brief: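 Chicken DT40 Tdp1-/- cells complemented with human TDP1, 400 cells/well, exposed to compounds plus 20 nM camptothecin for at least 48 h at 37 C; viability read as ATP content by CellTiter-Glo luminescence.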
% is scaled to controls: 0 for no effect and ±100 for the full control effect; potency is read from the fitted curve at half-maximal effect; tags tell the direction and shape of the fitted curve.

SMILES	Potency	activity change, negative = growth inhibition
CCOC(=S)SCC(=O)Nc1ncc(C)s1	inconclusive [inhibitor, partial curve, poor fit]	–
CCN(C[C@H]1N[C@@](Cc2ccccc2)(C(=O)OC)[C@H]2C(=O)N(C)C(=O)[C@@H]12)S(=O)(=O)c1ccc(C(C)(C)C)cc1	inconclusive [inhibitor, single point]	–
CCc1ccccc1N(CC)C(=O)C(=O)Nc1ccc2nc3n(c(=O)c2c1)CCCCC3	inconclusive [inhibitor, single point]	–
Cc1ccccc1Nc1nnc(SCC(=O)NC2CCCc3ccccc32)s1 (stereo not given)	inconclusive [inhibitor, single point]	–
O=C(c1ccc2c(c1)N(Cc1cccc(Cl)c1)C(=O)c1ccccc1S2(=O)=O)N1CCc2ccccc21	active: 2.06 µM	–
CC(C)(C)c1ccc(S(=O)(=O)N2CCCC2C(=O)NC2=NCCS2)cc1 (stereo not given)	inconclusive [inhibitor, single point]	–
O=[N+]([O-])c1ccc(CSc2ncnc3c2ncn3C2OC(CO)C(O)C2O)cc1 (stereo not given)	inconclusive [inhibitor, single point]	–
COc1cccc(Cn2c(=O)c(-c3ccc(Cl)cc3)nc3cncnc32)c1	inconclusive [inhibitor, single point]	–
COc1ccc(C(=O)NC(=S)N2CCN(c3ccccc3O)CC2)cc1	inconclusive [inhibitor, single point]	–
Cc1ccccc1NC(=S)N1CCN(c2ccccc2C)CC1	inconclusive [inhibitor, single point]	–
CCc1c(C)nc2ccc(Br)cc2c1SCCC#N	inconclusive [inhibitor, partial curve, poor fit]	–
CCCCN(C1CCS(=O)(=O)C1)S(=O)(=O)c1ccc(C(C)C)cc1 (stereo not given)	inconclusive [inhibitor, single point]	–
CCOC(=O)c1cccc(NC(=O)CCn2nc(C)c3c(C)n(-c4ccccc4)nc3c2=O)c1	inactive	–
Cc1ccccc1NC(=O)c1sc2nc(N3CCOCC3)c3c(c2c1N)CCCC3	inconclusive [inhibitor, single point]	–
CC(C)c1cc(C(=O)N2CCCC(Nc3ccc(F)cc3)C2)n[nH]1 (stereo not given)	inconclusive [inhibitor, single point]	–
Cc1cc2c(cc1S(=O)(=O)N(C)CC(=O)Nc1cccc(C#N)c1)OCC(=O)N2	inactive	–
COc1ccc(NC(=O)c2cccc(NC(=O)C(C)C)c2)c([N+](=O)[O-])c1	inconclusive [inhibitor, single point]	–
Cc1cc(OC(=O)c2cccs2)ccc1C(C)C	inconclusive [inhibitor, partial curve]	–
Cc1ccc(NC(=O)CSc2ccc(C(N)=O)cc2[N+](=O)[O-])cc1	inconclusive [inhibitor, full curve]	–
COc1ccc(CCNC(=O)Nc2ccc3c(c2)OCO3)cc1OC	inconclusive [inhibitor, partial curve]	–
CC(Oc1ccc(Cl)cc1)C(=O)Nc1nccs1 (stereo not given)	inactive	–
COc1cccc(Nc2nnc(SCC(=O)N3CC(=O)Nc4ccccc43)s2)c1	inconclusive [inhibitor, single point]	–
CC(=O)NC1=C(N(C)C2CCS(=O)(=O)C2)C(=O)c2ccccc2C1=O (stereo not given)	active: 8.2 µM	–
Cc1ccc(C)c(NC(=O)N2CCC(N3CCN(Cc4ccc(F)cc4)C(=O)C3=O)CC2)c1	inactive	–

SMILES	Potency	activity change, negative = growth inhibition
CCO[C@@H]1OC(C(=O)N2CCOCC2)=C[C@H](c2ccc(Br)cc2)[C@H]1CCCO	inconclusive [inhibitor, single point]	–
COc1cc(CN2c3ccc(Br)cc3C(=O)CS2(=O)=O)cc(OC)c1	inconclusive [inhibitor, single point]	–
NS(=O)(=O)c1ccc(-c2ccc(/C=C3\SC(=O)NC3=O)o2)cc1	inactive	–
COc1cc(NC(=O)c2cccnc2Sc2ccc(Cl)cc2)cc(OC)c1OC	inconclusive [inhibitor, single point]	–
CCN(CC)c1ccc(NC(=O)CN2CCN(CC(=O)Nc3ccccc3OC)CC2)cc1	active: 23.1 µM	–
Cc1ccc(S(=O)(=O)/C(=C/Cl)NC(=O)c2ccccc2)cc1	active: 18.4 µM	–
O=c1c2ccccc2nc(SCc2nc3ccccc3s2)n1CCCO	inconclusive [inhibitor, single point]	–
OC[C@@H]1CN(Cc2ccc(-c3ccccc3)cc2)C[C@H](n2cnc3c(NCc4ccncc4)ncnc32)O1	active: 2.91 µM	–
O=C(O)CCCn1cc(NC(=O)c2cc(F)c(F)cc2Cl)cn1	inconclusive [inhibitor, partial curve]	–
Cc1c(NC(=O)c2ccccc2)cc(C(C)C)c(O)c1S(=O)(=O)c1ccc(Cl)cc1	active: 20.6 µM	–
Fc1ccc(Nc2ncnc3c2nc2n3CCCC2)cc1	inactive	–
CCOC(=O)c1c(C)[nH]c(C(=O)C(C)OC(=O)c2ccc(NC(=O)CC#N)cc2)c1C (stereo not given)	inconclusive [inhibitor, single point]	–
Cc1ccccc1Nc1cc(C(=O)NC2CCCCC2)c2ccccc2n1	inconclusive [inhibitor, partial curve]	–
CC(C)CSC1=NSC2=NC(=O)/C(=C\c3cccs3)C(=N)N12	inconclusive [inhibitor, single point]	–
CC(C)C(=O)Nc1cccc(-c2csc(-c3ccccc3)n2)c1	inconclusive [inhibitor, partial curve, poor fit]	–
Cc1cc(C)nc(N/C(=N\S(=O)(=O)Cc2ccccc2)Nc2ccc(F)c(Cl)c2)n1	active: 18.4 µM	–
C=CCn1c(SCc2ccc(C#N)cc2)nnc1-c1cccc(OC)c1	inconclusive [inhibitor, single point]	–
O=C(CCNC(=O)C1CCN(S(=O)(=O)c2ccc(F)cc2)CC1)NCCc1ccc(Cl)cc1	inconclusive [inhibitor, single point]	–
NC(=O)C1CCN(C(=O)/C=C/c2ccco2)CC1	inactive	–
COc1ccc(C(=O)NCCC2=CCCCC2)cc1	inconclusive [inhibitor, single point]	–
O=C(CN1CCCCC1)NCCNc1ccc(C(F)(F)F)cc1[N+](=O)[O-]	inconclusive [inhibitor, single point]	–
COc1ccc(CNC(=O)c2ccc(-n3cncn3)c3ccoc23)cc1OC	inactive	–
Clc1ccc(NNc2ccnc3cc(Cl)ccc23)cc1	inconclusive [inhibitor, partial curve, poor fit]	–
O=c1c2ccccc2nnn1-c1ccccc1	inactive	–

SMILES	Potency	activity change, negative = growth inhibition
Cc1ccc(C(=O)Nc2ccc3c(c2)OCCO3)o1	inconclusive [inhibitor, single point]	–
CN(C)c1nc(OCCNC(=O)COc2ccc(Cl)cc2Cl)nc(N(C)C)n1	active: 7.31 µM	–
CCOc1cc(-c2cc(-c3ccc(NC(C)=O)cc3)nc(N)c2C#N)ccc1O	active: 18.4 µM	–
COc1ccc(CCNC(=O)C23CN(Cc4ccccc4)CC2C(c2cccc([N+](=O)[O-])c2)=NO3)cc1 (stereo not given)	inconclusive [inhibitor, single point]	–
CN(C)CC(C)(C)CNc1ccc(S(=O)(=O)N2CCCC2)cn1	inactive	–
Cc1ccc(C)c(NC(=O)C(Cc2ccccc2)N2Cc3ccccc3C2=O)c1 (stereo not given)	inconclusive [inhibitor, single point]	–
Cc1ccc(CCNc2ncnc3onc(C)c23)cc1	active: 1.84 µM	–
CSc1cccc(Nc2cc(C(=O)NCCCN(Cc3ccccc3)C(C)C)c3ccccc3n2)c1	active: 5.8 µM	–
Cc1cccc(N2C(=O)C3C4C=CC(C5CC45)C3C2=O)n1 (stereo not given)	inactive	–
O=C(NCCS(=O)(=O)N1CCN(c2ccc(F)cc2)CC1)c1cc(=O)c2ccccc2o1	inconclusive [inhibitor, full curve, poor fit]	–
Cc1ccc(C2CC(=O)Nc3cc4c(cc32)OCCO4)s1 (stereo not given)	inconclusive [inhibitor, single point]	–
Cc1ccc(NC2c3ncccc3C(=O)N2Cc2ccc(F)cc2)cc1 (stereo not given)	–	inconclusive: -30.7% [inhibitor]
CCC(C)(C)C1CCc2[nH]nc(C(=O)NC3CCCCC3)c2C1 (stereo not given)	active: 11.6 µM	–
COc1ccc(-c2n[nH]c(=S)n2/N=C/C=C\c2ccccc2OC)cc1	active: 23.1 µM	–
COc1ccc(Oc2nnc(-c3ccc(C)cc3)c3ccccc23)cc1	inconclusive [inhibitor, partial curve]	–
Cc1cc(C)nc(N2CCC(C(=O)Nc3nnc(C)s3)CC2)n1	inactive	–
Cc1ccc2occ(CC(=O)N(Cc3ccc(N(C)C)cc3)C3CCS(=O)(=O)C3)c2c1 (stereo not given)	inconclusive [inhibitor, single point]	–
CC(=O)c1cc(C#N)c(SCc2ccncc2)nc1C	inconclusive [inhibitor, single point]	–
COC(=O)CCc1nc2cc(Cl)ccc2n(Cc2ccccc2)c1=O	inactive	–
C[C@@H]1CC[C@H](O)/C=C/C(=O)O[C@H](C)CC[C@H](O)/C=C/C(=O)O1	active: 5.17 µM	–
COc1ccc([C@H]2CC(=O)C[C@@H](CCn3cc(-c4ccc(F)cc4)nn3)O2)cc1	inactive	–
O=C(Nc1nnc(-c2ccc3c(c2)OCCO3)o1)c1ccc(Cc2ccccc2)cc1	inconclusive [inhibitor, single point]	–
